Measured values taken from PubChem BioAssay AID504332 (National Center for Advancing Translational Sciences (NCATS), 2011).
Out of some 350,000 compounds screened, about 31,000 (8.9%) were called active. This list was built around the results that the source calls inconclusive (neither active nor inactive); the mix of calls is not that of the screen. Calls come from the whole dose curve; as a rule, active = well fitted inhibition curve with a large enough effect; inconclusive = small, poorly fitted or top-dose-only effect; inactive = no such curve, though single readings can be large or run the other way. Where the call is inconclusive, the potency comes from a doubtful curve fit.

Target: Histone-lysine N-methyltransferase EHMT2 (Homo sapiens) (UniProt Q96KQ7)
Sequence of UniProt Q96KQ7 (Q96KQ7 whole entry, looked up): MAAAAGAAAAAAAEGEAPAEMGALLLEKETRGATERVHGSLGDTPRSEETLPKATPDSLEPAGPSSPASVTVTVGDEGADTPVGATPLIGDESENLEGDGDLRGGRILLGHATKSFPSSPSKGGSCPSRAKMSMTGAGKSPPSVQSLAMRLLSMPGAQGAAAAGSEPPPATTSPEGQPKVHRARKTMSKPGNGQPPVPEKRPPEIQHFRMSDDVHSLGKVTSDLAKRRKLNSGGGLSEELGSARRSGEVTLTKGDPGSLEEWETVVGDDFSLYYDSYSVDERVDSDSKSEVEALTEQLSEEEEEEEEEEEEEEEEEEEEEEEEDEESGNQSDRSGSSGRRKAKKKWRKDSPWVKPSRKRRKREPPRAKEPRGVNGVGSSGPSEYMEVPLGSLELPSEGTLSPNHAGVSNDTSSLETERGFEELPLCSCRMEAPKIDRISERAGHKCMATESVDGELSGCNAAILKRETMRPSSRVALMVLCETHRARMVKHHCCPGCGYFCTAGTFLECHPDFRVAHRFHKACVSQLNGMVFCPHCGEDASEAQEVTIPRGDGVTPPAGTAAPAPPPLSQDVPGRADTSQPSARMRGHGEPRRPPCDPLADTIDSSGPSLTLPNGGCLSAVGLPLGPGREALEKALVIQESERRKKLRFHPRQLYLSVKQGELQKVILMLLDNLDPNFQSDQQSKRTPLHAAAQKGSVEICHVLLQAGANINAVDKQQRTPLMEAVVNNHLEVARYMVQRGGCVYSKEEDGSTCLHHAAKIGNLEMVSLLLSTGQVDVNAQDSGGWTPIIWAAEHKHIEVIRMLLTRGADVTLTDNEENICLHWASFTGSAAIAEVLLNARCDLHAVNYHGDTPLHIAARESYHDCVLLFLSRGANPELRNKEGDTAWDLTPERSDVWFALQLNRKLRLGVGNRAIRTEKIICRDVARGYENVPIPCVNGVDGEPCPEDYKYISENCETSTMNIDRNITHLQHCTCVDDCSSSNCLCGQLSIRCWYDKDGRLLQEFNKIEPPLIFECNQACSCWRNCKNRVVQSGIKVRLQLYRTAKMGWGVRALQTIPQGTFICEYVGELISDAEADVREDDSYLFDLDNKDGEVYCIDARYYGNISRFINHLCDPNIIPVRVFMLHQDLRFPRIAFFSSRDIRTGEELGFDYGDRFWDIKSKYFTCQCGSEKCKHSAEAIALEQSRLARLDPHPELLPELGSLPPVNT
Assay: qHTS Assay for Inhibitors of Histone Lysine Methyltransferase G9a; note: nearly all actives have a fitted effect of over 75% in size
Conditions: G9a H3K9 monomethylation, AlphaScreen, 2 h; activity, negative = inhibition: at 59 µM (top of the series) unless noted
In short: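 Signal arises when biotinylated H3K9 peptide, once monomethylated, bridges streptavidin donor and antibody-captured acceptor beads. Enzyme at 20 nM was preincubated 15 min with test compounds; peptide 500 nM and SAM 20 uM then reacted for 2 h.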
% is set by controls: 0 for no effect and ±100 for the full control effect; potency is the fitted concentration of half-maximal effect; tags give direction and shape of the fitted curve.

SMILES	Potency	activity, negative = inhibition
COc1ccc(S(=O)(=O)NC(C)C(=O)NCc2cccnc2)cc1C (stereo not given)	inconclusive: 35.5 µM [inhibitor, partial curve, poor fit]	
CCn1c(C)cc(/C=C2\NC(=O)N(Cc3ccc(Cl)cc3)C2=O)c1C		inactive: -0.429% [at 102 µM]
O=c1[nH]c2ccc(NS(=O)(=O)c3ccc(F)c(Cl)c3)cc2[nH]1	inconclusive: 79.4 µM [inhibitor, partial curve]	
CN(C)/C=N/C(=S)Nc1ccc(Cl)c(Cl)c1	inconclusive: 4.47 µM [inhibitor, partial curve, poor fit]	
COC(=O)c1sc(NC(=O)CSc2nnnn2-c2cccc(OC)c2)nc1C	inconclusive: 35.5 µM [inhibitor, single point]	
CC[C@@]1(c2cccc(C)c2)C(=O)N(C(=O)OC)N1C(=O)OC	active: 44.7 µM	
COc1ccc(-n2c(Cc3cccn3C)nnc2SCC(=O)N2CCC(C)CC2)cc1	inconclusive: 50.1 µM [inhibitor, partial curve, poor fit]	
COc1ccccc1NC(=O)c1ccc2[nH]c(C)cc(=O)c2c1	inconclusive: 39.8 µM [inhibitor, single point]	
CC(C)C(c1nnnn1C1CCCCC1)N1CCOCC1 (stereo not given)		inactive: 24%
C=CCOc1ccc(Br)cc1CNCC	inconclusive: 89.1 µM [inhibitor, partial curve, poor fit]	
CCCCCn1c2nc3ccccc3nc2c2c(=O)n(CC3CCCO3)c(C)nc21 (stereo not given)	inconclusive: 10 µM [inhibitor, partial curve, poor fit]	
O=C(NCc1ccc(Cl)cc1)NCC(F)(F)F		inactive: -2.12% [at 102 µM]
COc1ccc(CN2CCN(c3ncccn3)CC2)c(C)c1C	active: 4.47 µM	
S=C(Nc1ccccc1)N1CCc2ccccc21		inactive: 19% [at 0.501 µM]
O=C(NCCc1cccc(F)c1)[C@@H]1CSC2c3ccccc3C(=O)N21 (stereo not given in full)	inconclusive: 89.1 µM [inhibitor, partial curve, poor fit]	
COc1cc2c(cc1OC)C(c1ccc(F)cc1)N(c1ccccc1)C(=O)C2 (stereo not given)		inactive: -33%
Cn1c(SCc2cccc3ccccc23)nnc1-c1ccco1	active: 15.8 µM	
COc1ccccc1N(C)S(=O)(=O)c1ccc(Cl)c(C(=O)NCC2(N(C)C)CCCCC2)c1	inconclusive: 0.631 µM [inhibitor, full curve]	
O=C1CCC(C(=O)N2CCc3c(Cl)cccc3C2)CN1CCCN1CCOCC1 (stereo not given)	active: 39.8 µM	
NC(=NCCc1c[nH]c2ccccc12)NC(=O)c1ccc(F)cc1	inconclusive: 39.8 µM [inhibitor, single point]	
